Data published in the supplement of paper PMC9334596.
Where “and” joins values, the source holds several entries; their conditions need not be identical. Equal entries are not always repeated. The full ranking holds about 5,300 compounds; the median of “PER2::LUC luminescence relative to vehicle control” is about 0.96, and the highest 2% start at about 1.3. The list shows a part of the results.

System: mPer2Luc MEF
Experiment: PER2::LUC luminescence relative to vehicle control (fold of vehicle); higher = higher PER2::LUC reporter signal
Conditions: 10 µM
Method in brief: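 Mouse embryonic fibroblasts carrying the mPer2Luc reporter were seeded at ~3000 cells per well in 384-well plates, 48 h before compounds from commercial libraries were added at 10 μM. Cells were grown in DMEM with 10% FBS at 37 °C and 5% CO2. Luminescence was read with the ONE-Glo luciferase assay system 24 h and 30 h after treatment, followed by an alamarBlue viability assay. The value is PER2::LUC luminescence as fold of vehicle control.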

SMILES	PER2::LUC luminescence (time after treatment 24 h)	PER2::LUC luminescence (time after treatment 30 h)
CSc1ccc2c(c1)C(N1CCN(C)CC1)Cc1ccccc1S2 (stereo not drawn)	0.759 and 0.696 and 0.536	0.758 and 0.749 and 0.481
Clc1ccc(NN=C(c2ccccc2)c2ccccn2)nc1	0.769	0.719
O=C(O)CC1CCC(c2ccc(-c3ccc4nc(C(=O)NCc5ccc(OC(F)(F)F)cc5)cn4c3)cc2)CC1 (stereo not drawn)	1	1.1
C[N+]1(C)[C@@H]2C[C@@H](OC(=O)C(O)(c3cccs3)c3cccs3)C[C@H]1[C@@H]1O[C@@H]12	1.04	1.04
Cc1ccccc1-c1cc(N2CCN(C)CC2)ncc1N(C)C(=O)C(C)(C)c1cc(C(F)(F)F)cc(C(F)(F)F)c1	1.05	0.981
C[N+]1(C)[C@@H]2CC[C@H]1C[C@@H](OC(=O)C(O)c1ccccc1)C2 (stereo partly drawn)	0.967	1.18
Cc1ccc(O)c(N=Nc2ccccc2)n1	1.05	0.998
Cc1c(C)c2c(c(C)c1O)CCC(C)(COc1ccc(CC3SC(=O)NC3=O)cc1)O2 (stereo not drawn)	1.04	1.04
C[C@]1(OC(=O)/C=C/c2ccccc2)C[C@@H](O)[C@]2(O)C=CO[C@@H](O[C@@H]3O[C@H](CO)[C@@H](O)[C@H](O)[C@H]3O)[C@@H]21	1.04	1.05
COc1ccc2c(c1)OC/C(=C\c1ccc(OC)c(O)c1)C2=O	0.879	0.794
O=S(=O)(c1ccc(Cl)cc1)N1CCN(c2ccnc3cc(Cl)ccc23)CC1	1.27	1.1
COC(=O)C1=C(C)NC(C)=C(C(=O)OCCN2CCN(C(c3ccccc3)c3ccccc3)CC2)C1c1cccc([N+](=O)[O-])c1 (stereo not drawn)	0.986 and 1.03 and 1.09	1.07 and 0.984 and 1.24
CC(C)N(C[C@H]1O[C@@H](n2cnc3c(N)ncnc32)[C@H](O)[C@@H]1O)[C@H]1C[C@@H](CCc2nc3cc(C(C)(C)C)ccc3[nH]2)C1	1.05	1.04
COC(c1ccccc1)(c1ccccc1)[C@H](Oc1nc(C)cc(C)n1)C(=O)O	0.919	1.11
O=C(O)c1cc(=O)cc(C(=O)O)[nH]1	0.966	0.958
Cc1nc(C#Cc2cccnc2)cs1	1.15	1.26
OC[C@H]1O[C@H](O[C@]2(CCl)O[C@H](CCl)[C@@H](O)[C@@H]2O)[C@H](O)[C@@H](O)[C@H]1Cl	0.999	1.07
CNC(=O)c1cc(Oc2ccc(NC(=O)Nc3cc(C(C)(C)C)nn3-c3ccc4ncccc4c3)c(F)c2)ccn1	1.11	0.53
CCOC(=O)C1(CCCCCCOc2ccc(Cl)cc2)CO1 (stereo not drawn)	0.887	0.806
COc1ccc2c(c1)c(CC(=O)O)c(C)n2C(=O)c1ccc(Cl)cc1	1.03 and 0.97	0.935 and 0.986
C/C1=C/CCC(C)(O)/C=C\C(C(C)C)C(OC(=O)c2ccc(O)cc2)C1 (stereo not drawn)	1.06	1.07
CN1CCC(=C2c3ccccc3CCc3cccnc32)CC1	0.974 and 0.872	0.896 and 0.655
Nc1nc2ccc(OC(F)(F)F)cc2s1	1.26 and 0.999	1.5 and 1.06
Oc1cc(O)c2c(c1)O[C@H](c1ccc(O)c(O)c1)[C@H](O)C2	0.958 and 1.06	0.909 and 1.2
C(=C\c1ccccc1)/CN1CCN(C(c2ccccc2)c2ccccc2)CC1	1.1 and 0.959	1.01 and 0.887

SMILES	PER2::LUC luminescence (time after treatment 24 h)	PER2::LUC luminescence (time after treatment 30 h)
COc1ccc(-c2cc(=O)c3c(O)c(OC)c(O[C@@H]4O[C@H](CO[C@@H]5O[C@@H](C)[C@H](O)[C@@H](O)[C@H]5O)[C@@H](O)[C@H](O)[C@H]4O)cc3o2)cc1	0.951	1.02
CCCCCCCCOC(=O)C=Cc1ccc(OC)cc1	1.04	1.09
O=C(C1CCCCC1)N1CC(=O)N2CCc3ccccc3C2C1 (stereo not drawn)	1.2	0.952
O=C(Nc1ccc(C(F)(F)F)cn1)c1cccc2cccnc12	1.02	1.03
C[C@@H]1CCO[C@H]2Cn3cc(C(=O)NCc4ccc(F)cc4F)c(=O)c(O)c3C(=O)N12	1.35 and 1.15	1.4 and 1.2
NCC(O)COc1cccc2ccccc12 (stereo not drawn)	0.637	0.588
C[C@]1(O)C[C@@H](c2nc(-c3ccc4ccc(-c5ccccc5)nc4c3)c3c(N)nccn32)C1	0.417	0.497
CC(C)=CCc1c(O)ccc(C(=O)/C=C/c2ccc(O)cc2)c1O	0.904	0.903
O=C(O)c1cc(/N=N/c2ccc(O)c(C(=O)O)c2)ccc1O	0.791 and 0.979	0.974 and 0.725
CCCCCCCCCCCCCCCC(=O)OC(CC(=O)O)C[N+](C)(C)C (racemic)	0.768	1.19
COc1ccc2c(c1OC)C(=O)O[C@@H]2[C@H]1c2c(cc3c(c2OC)OCO3)CCN1C (racemic)	0.87	0.844
COc1ccc2c(c1OC)C(=O)O[C@@H]2[C@H]1c2c(cc3c(c2OC)OCO3)CCN1C	0.864	0.919
CCc1c(C(=O)NNC(=O)[C@@H](O)c2cc(F)cc(F)c2)ccc(O)c1C	1.02	1.09
CC(=O)NCCCS(=O)(=O)O	0.808	1.2
CN1CCN(C2CCC(n3cc(-c4ccc(Oc5ccccc5)cc4)c4c(N)ncnc43)CC2)CC1 (stereo not drawn)	0.091	0.137
CCCC(CCC)C(=O)Nc1ccn([C@@H]2O[C@H](CO)[C@@H](O)C2(F)F)c(=O)n1	0.881	0.735
O=C(Nc1ccccc1-c1cn2c(CN3CCNCC3)csc2n1)c1cnc2ccccc2n1	0.205	0.413
CCOC(=O)O[C@]1(C(=O)COC(=O)CC)CC[C@H]2[C@@H]3CCC4=CC(=O)C=C[C@]4(C)[C@H]3[C@@H](O)C[C@@]21C	0.534	0.967
CC(C)C[C@H](NC(=O)[C@H](O)[C@H](N)Cc1ccccc1)C(=O)O	0.99	0.902
C=C1c2c(Cl)ccc(O)c2C(=O)C2=C(O)[C@]3(O)C(=O)C(C(N)=O)=C(O)[C@@H](N(C)C)[C@@H]3[C@@H](O)[C@H]12.O=C(O)c1cc(S(=O)(=O)O)ccc1O	0.648	0.771
CNC(=O)c1cc(Oc2ccc(NC(=O)Nc3ccc(Cl)c(C(F)(F)F)c3)c(F)c2)ccn1	0.831 and 0.772	0.697 and 0.731
C=C[C@@](C)(O)CC[C@H]1C(=C)CC[C@H]2C(C)(C)CCC[C@]12C	0.946	0.911
CC(C)(C)NCC(O)COc1cccc2c1CCC(=O)N2 (stereo not drawn)	1.07	0.822
CC(C)C[C@H](N)C(=O)N[C@H](C(=O)N[C@H](C(=O)N[C@@H](Cc1ccc(O)cc1)C(=O)N1CCC[C@H]1C(=O)N[C@@H](Cc1c[nH]c2ccccc12)C(=O)N[C@H](C(=O)N[C@@H](CCC(N)=O)C(=O)N[C@@H](CCCN=C(N)N)C(=O)O)[C@@H](C)O)C(C)C)C(C)C	0.942	0.916
